Measurements reported in the supplement of paper PMC9151546.
Single values are uncertain, as repeats are few or missing.

What was measured:
CHO-K1 [1] = test: micronucleus frequency (% of nucleated events); higher = more micronuclei (genotoxic)
CHO-K1 [2] = test: hypodiploid nuclei frequency (% of nucleated events); higher = more hypodiploid events (aneugenic)
Description: (§1)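 Flow-cytometric in vitro micronucleus assay (Litron MicroFlow) in CHO-K1 cells in 96-well plates, 19 concentrations (4.5-200 µM, n=1 per concentration). Without S9, cells were exposed for 24 h and sampled at 48 h. With Aroclor 1254-induced rat liver S9, cells were exposed for 3-4 h and sampled at 27-28 h. Read-outs are %MN and %hypodiploid nuclei relative to nucleated events, and relative survival as the nuclei-to-bead ratio versus the 1% DMSO vehicle control (x100).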

CHO-K1 [3] = test: relative survival (nuclei to bead ratio vs DMSO control) (% of vehicle control); higher = more surviving cells
Description: as §1

[4] = concentration: 4.5 (µM), S9 metabolic activation: with S9, exposure time: 3-4 hours
[5] = concentration: 4.5 (µM), S9 metabolic activation: without S9, exposure time: 24 hours
[6] = concentration: 5.63 (µM), S9 metabolic activation: with S9, exposure time: 3-4 hours
[7] = concentration: 5.63 (µM), S9 metabolic activation: without S9, exposure time: 24 hours
[8] = concentration: 7.04 (µM), S9 metabolic activation: with S9, exposure time: 3-4 hours
[9] = concentration: 7.04 (µM), S9 metabolic activation: without S9, exposure time: 24 hours
[10] = concentration: 8.8 (µM), S9 metabolic activation: with S9, exposure time: 3-4 hours
[11] = concentration: 8.8 (µM), S9 metabolic activation: without S9, exposure time: 24 hours
[12] = concentration: 11 (µM), S9 metabolic activation: with S9, exposure time: 3-4 hours
[13] = concentration: 11 (µM), S9 metabolic activation: without S9, exposure time: 24 hours
[14] = concentration: 13.7 (µM), S9 metabolic activation: with S9, exposure time: 3-4 hours
[15] = concentration: 13.7 (µM), S9 metabolic activation: without S9, exposure time: 24 hours
[16] = concentration: 17.2 (µM), S9 metabolic activation: with S9, exposure time: 3-4 hours
[17] = concentration: 17.2 (µM), S9 metabolic activation: without S9, exposure time: 24 hours
[18] = concentration: 21.5 (µM), S9 metabolic activation: with S9, exposure time: 3-4 hours
[19] = concentration: 21.5 (µM), S9 metabolic activation: without S9, exposure time: 24 hours
[20] = concentration: 26.8 (µM), S9 metabolic activation: with S9, exposure time: 3-4 hours
[21] = concentration: 26.8 (µM), S9 metabolic activation: without S9, exposure time: 24 hours
[22] = concentration: 33.6 (µM), S9 metabolic activation: with S9, exposure time: 3-4 hours
[23] = concentration: 33.6 (µM), S9 metabolic activation: without S9, exposure time: 24 hours
[24] = concentration: 41.9 (µM), S9 metabolic activation: with S9, exposure time: 3-4 hours
[25] = concentration: 41.9 (µM), S9 metabolic activation: without S9, exposure time: 24 hours
[26] = concentration: 52.4 (µM), S9 metabolic activation: with S9, exposure time: 3-4 hours
[27] = concentration: 52.4 (µM), S9 metabolic activation: without S9, exposure time: 24 hours
[28] = concentration: 65.5 (µM), S9 metabolic activation: with S9, exposure time: 3-4 hours
[29] = concentration: 65.5 (µM), S9 metabolic activation: without S9, exposure time: 24 hours
[30] = concentration: 81.9 (µM), S9 metabolic activation: with S9, exposure time: 3-4 hours
[31] = concentration: 81.9 (µM), S9 metabolic activation: without S9, exposure time: 24 hours
[32] = concentration: 102 (µM), S9 metabolic activation: with S9, exposure time: 3-4 hours
[33] = concentration: 102 (µM), S9 metabolic activation: without S9, exposure time: 24 hours
[34] = concentration: 128 (µM), S9 metabolic activation: with S9, exposure time: 3-4 hours
[35] = concentration: 128 (µM), S9 metabolic activation: without S9, exposure time: 24 hours
[36] = concentration: 160 (µM), S9 metabolic activation: with S9, exposure time: 3-4 hours
[37] = concentration: 160 (µM), S9 metabolic activation: without S9, exposure time: 24 hours
[38] = concentration: 200 (µM), S9 metabolic activation: with S9, exposure time: 3-4 hours
[39] = concentration: 200 (µM), S9 metabolic activation: without S9, exposure time: 24 hours
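Throughout, for hypodiploid nuclei frequency (% of nucleated events): hypodiploid nuclei gated on a flow cytometer with 488 nm excitation after SYTOX Green staining, cultures at 37 °C, positive controls vinblastine without S9 and cyclophosphamide with S9.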
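Throughout, for micronucleus frequency (% of nucleated events): cells lysed with nuclei stained by SYTOX Green, then micronucleus-gated events counted against nucleated events by flow cytometry with 488 nm excitation.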
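Throughout, for relative survival (nuclei to bead ratio vs DMSO control): Lysed-cell nuclei stained with SYTOX Green and counted against counting beads by flow cytometry at 488 nm excitation, with vinblastine (no S9) and cyclophosphamide (plus S9) as positive controls.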

OCC(CO)(CBr)CBr [2,2-Bis(bromomethyl)-1,3-propanediol]
micronucleus frequency (CHO-K1 [1]; [4]): 1.18%
micronucleus frequency (CHO-K1 [1]; [5]): 1.1%
micronucleus frequency (CHO-K1 [1]; [6]): 1.52%
micronucleus frequency (CHO-K1 [1]; [7]): 1.38%
micronucleus frequency (CHO-K1 [1]; [8]): 1.68%
micronucleus frequency (CHO-K1 [1]; [9]): 1.6%
micronucleus frequency (CHO-K1 [1]; [10]): 1.42%
micronucleus frequency (CHO-K1 [1]; [11]): 1.38%
micronucleus frequency (CHO-K1 [1]; [12]): 1.54%
micronucleus frequency (CHO-K1 [1]; [13]): 1.28%
micronucleus frequency (CHO-K1 [1]; [14]): 1.66%
micronucleus frequency (CHO-K1 [1]; [15]): 1.58%
micronucleus frequency (CHO-K1 [1]; [16]): 1.78%
micronucleus frequency (CHO-K1 [1]; [17]): 1.26%
micronucleus frequency (CHO-K1 [1]; [18]): 1.6%
micronucleus frequency (CHO-K1 [1]; [19]): 1.14%
micronucleus frequency (CHO-K1 [1]; [20]): 0.94%
micronucleus frequency (CHO-K1 [1]; [21]): 1.88%
micronucleus frequency (CHO-K1 [1]; [22]): 1.08%
micronucleus frequency (CHO-K1 [1]; [23]): 2%
micronucleus frequency (CHO-K1 [1]; [24]): 1.04%
micronucleus frequency (CHO-K1 [1]; [25]): 1.2%
micronucleus frequency (CHO-K1 [1]; [26]): 0.9%
micronucleus frequency (CHO-K1 [1]; [27]): 1.22%
micronucleus frequency (CHO-K1 [1]; [28]): 1.1%
micronucleus frequency (CHO-K1 [1]; [29]): 1.46%
micronucleus frequency (CHO-K1 [1]; [30]): 1.44%
micronucleus frequency (CHO-K1 [1]; [31]): 1.06%
micronucleus frequency (CHO-K1 [1]; [32]): 1.14%
micronucleus frequency (CHO-K1 [1]; [33]): 1.44%
micronucleus frequency (CHO-K1 [1]; [34]): 1.06%
micronucleus frequency (CHO-K1 [1]; [35]): 1.42%
micronucleus frequency (CHO-K1 [1]; [36]): 1.34%
micronucleus frequency (CHO-K1 [1]; [37]): 1.4%
micronucleus frequency (CHO-K1 [1]; [38]): 1.78%
micronucleus frequency (CHO-K1 [1]; [39]): 2.2%
hypodiploid nuclei frequency (CHO-K1 [2]; [4]): 0.22%
hypodiploid nuclei frequency (CHO-K1 [2]; [5]): 0.56%
hypodiploid nuclei frequency (CHO-K1 [2]; [6]): 0.34%
hypodiploid nuclei frequency (CHO-K1 [2]; [7]): 0.54%
hypodiploid nuclei frequency (CHO-K1 [2]; [8]): 0.16%
hypodiploid nuclei frequency (CHO-K1 [2]; [9]): 0.44%
hypodiploid nuclei frequency (CHO-K1 [2]; [10]): 0.14%
hypodiploid nuclei frequency (CHO-K1 [2]; [11]): 0.62%
hypodiploid nuclei frequency (CHO-K1 [2]; [12]): 0.22%
hypodiploid nuclei frequency (CHO-K1 [2]; [13]): 0.5%
hypodiploid nuclei frequency (CHO-K1 [2]; [14]): 0.24%
hypodiploid nuclei frequency (CHO-K1 [2]; [15]): 0.5%
hypodiploid nuclei frequency (CHO-K1 [2]; [16]): 0.3%
hypodiploid nuclei frequency (CHO-K1 [2]; [17]): 0.8%
hypodiploid nuclei frequency (CHO-K1 [2]; [18]): 0.12%
hypodiploid nuclei frequency (CHO-K1 [2]; [19]): 0.52%
hypodiploid nuclei frequency (CHO-K1 [2]; [20]): 0.16%
hypodiploid nuclei frequency (CHO-K1 [2]; [21]): 0.58%
hypodiploid nuclei frequency (CHO-K1 [2]; [22]): 0.1%
hypodiploid nuclei frequency (CHO-K1 [2]; [23]): 0.42%
hypodiploid nuclei frequency (CHO-K1 [2]; [24]): 0.24%
hypodiploid nuclei frequency (CHO-K1 [2]; [25]): 0.54%
hypodiploid nuclei frequency (CHO-K1 [2]; [26]): 0.26%
hypodiploid nuclei frequency (CHO-K1 [2]; [27]): 0.7%
hypodiploid nuclei frequency (CHO-K1 [2]; [28]): 0.28%
hypodiploid nuclei frequency (CHO-K1 [2]; [29]): 0.46%
hypodiploid nuclei frequency (CHO-K1 [2]; [30]): 0.32%
hypodiploid nuclei frequency (CHO-K1 [2]; [31]): 0.56%
hypodiploid nuclei frequency (CHO-K1 [2]; [32]): 0.12%
hypodiploid nuclei frequency (CHO-K1 [2]; [33]): 0.52%
hypodiploid nuclei frequency (CHO-K1 [2]; [34]): 0.22%
hypodiploid nuclei frequency (CHO-K1 [2]; [35]): 0.78%
hypodiploid nuclei frequency (CHO-K1 [2]; [36]): 0.3%
hypodiploid nuclei frequency (CHO-K1 [2]; [37]): 0.6%
hypodiploid nuclei frequency (CHO-K1 [2]; [38]): 0.26%
hypodiploid nuclei frequency (CHO-K1 [2]; [39]): 0.78%
relative survival (CHO-K1 [3]; [4]): 114
relative survival (CHO-K1 [3]; [5]): 113
relative survival (CHO-K1 [3]; [6]): 131
relative survival (CHO-K1 [3]; [7]): 95.5
relative survival (CHO-K1 [3]; [8]): 112
relative survival (CHO-K1 [3]; [9]): 106
relative survival (CHO-K1 [3]; [10]): 118
relative survival (CHO-K1 [3]; [11]): 121
relative survival (CHO-K1 [3]; [12]): 113
relative survival (CHO-K1 [3]; [13]): 109
relative survival (CHO-K1 [3]; [14]): 109
relative survival (CHO-K1 [3]; [15]): 109
relative survival (CHO-K1 [3]; [16]): 99
relative survival (CHO-K1 [3]; [17]): 109
relative survival (CHO-K1 [3]; [18]): 103
relative survival (CHO-K1 [3]; [19]): 103
relative survival (CHO-K1 [3]; [20]): 126
relative survival (CHO-K1 [3]; [21]): 107
relative survival (CHO-K1 [3]; [22]): 119
relative survival (CHO-K1 [3]; [23]): 103
relative survival (CHO-K1 [3]; [24]): 104
relative survival (CHO-K1 [3]; [25]): 106
relative survival (CHO-K1 [3]; [26]): 95.1
relative survival (CHO-K1 [3]; [27]): 91
relative survival (CHO-K1 [3]; [28]): 93
relative survival (CHO-K1 [3]; [29]): 91
relative survival (CHO-K1 [3]; [30]): 104
relative survival (CHO-K1 [3]; [31]): 108
relative survival (CHO-K1 [3]; [32]): 99.9
relative survival (CHO-K1 [3]; [33]): 104
relative survival (CHO-K1 [3]; [34]): 100
relative survival (CHO-K1 [3]; [35]): 81.9
relative survival (CHO-K1 [3]; [36]): 107
relative survival (CHO-K1 [3]; [37]): 96
relative survival (CHO-K1 [3]; [38]): 100
relative survival (CHO-K1 [3]; [39]): 78.6
